Test results: PubChem BioAssay AID1346428 (National Center for Advancing Translational Sciences (NCATS), 2018)
Values joined by “and” are separate entries in the source; they are usually repeats but may differ in a detail not shown here. Equal values may be shown once. About 1,200 (2.5%) of roughly 48,000 compounds were called active. About 2% were inconclusive and are not listed.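 How the source made its calls: active means activation of at least 60% and not above a set upper limit (about 1 call in 100 departs from these limits); inconclusive means activation of 40% to 60%, or above that upper limit; inactive means activation under 40%.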 The list shows a part of the results.

The molecules below were run against Probable G-protein coupled receptor 32 (Homo sapiens) (UniProt O75388) (assay: qHTS for Agonists of Human Resolvin D1 Receptor DRV1). Conditions: CHO-K1 GPR32 beta-arrestin PathHunter luminescence, 90 min; at 76.9 µM; stronger effect = higher value; zero percent set by DMSO-only wells.
Procedure, shortened: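 Engineered CHO-K1 line co-expressing GPR32-ProLink and EA-beta-arrestin. Compound treatment lasted 90 min at 37 °C. Luminescence was recorded after 1 h with substrate at ambient temperature, relative to DMSO basal wells.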
Further: 0% is about no effect.

UniProt O75388, sequence (O75388 whole entry, looked up): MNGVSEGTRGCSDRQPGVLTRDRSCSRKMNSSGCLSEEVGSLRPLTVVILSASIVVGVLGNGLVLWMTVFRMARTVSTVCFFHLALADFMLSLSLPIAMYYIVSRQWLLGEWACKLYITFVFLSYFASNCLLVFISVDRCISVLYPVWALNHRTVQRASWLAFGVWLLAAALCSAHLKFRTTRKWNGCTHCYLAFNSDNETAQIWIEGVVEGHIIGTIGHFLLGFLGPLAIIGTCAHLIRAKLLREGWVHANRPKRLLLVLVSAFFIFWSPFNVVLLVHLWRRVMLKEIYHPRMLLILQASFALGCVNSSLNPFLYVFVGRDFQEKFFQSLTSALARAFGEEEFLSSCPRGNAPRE

| SMILES | activation |
| --- | --- |
| COc1ccc(NC(=O)c2c(NC(=O)Cc3ccccc3)sc3c2CCCC3)cc1 | inactive: 4.3% |
| O=C(CSc1ccc2nc(-c3ccccc3)cn2n1)Nc1cccc(F)c1 | inactive: -11.2% |
| C=CCNc1nc(NCC=C)nc(N2CCN(C(c3ccc(F)cc3)c3ccc(F)cc3)CC2)n1 | inactive: -21% |
| COc1ccc(NC(=O)Cn2c(=O)n(Cc3ccc(C(=O)NCc4ccccc4Cl)cc3)c(=O)c3ccccc32)cc1 | inactive: -4.2% |
| COc1ccc(Cn2nnc3c(=O)[nH]c(C4CCN(C(=O)c5ccc(C)cc5)CC4)nc32)cc1OC | inactive: -9.52% |
| CCN(CC)CCCNC(=O)CN1N=C(c2ccccc2)CCC1=O | inactive: -1.98% |
| Cc1cc(F)ccc1NC(=O)Cn1c(=O)ccc2cc(S(=O)(=O)N3CCC(C)CC3)ccc21 | inactive: -12.2% |
| Cc1nn(C)c2c1c(C(F)(F)F)cc(=O)n2C(C)C(=O)NCc1ccccc1Cl (configuration not stated) | inactive: 1.89% |
| Cc1nn(CC(=O)N2CCN(c3cccc(C(F)(F)F)c3)CC2)c(=O)c2cccn12 | inactive: 0.302% |
| Cc1ccc(NC(=O)Cn2nnc(C(=O)NCc3cccs3)c2N)cc1Cl | inactive: -9.74% |
| COC(=O)c1sccc1S(=O)(=O)N(CC(=O)NCc1ccc(F)cc1)c1ccc(Cl)cc1 | inactive: -11.1% |
| COc1ccc(CNC(=O)c2ccc(CNS(=O)(=O)c3ccc(F)cc3)cc2)cc1 | inactive: -4.01% |
| Cc1oc(-c2cccc(Cl)c2)nc1Cn1c(SCc2ccccc2F)nc2ccncc21 | inactive: 1.75% |
| Nc1c(CC(=O)O)cccc1C(=O)c1ccc(Br)cc1 | inactive: -30.2% |
| COc1ccccc1NC(=O)CSC1=Nc2ccccc2C2=NC(CC(=O)NCc3cccs3)C(=O)N12 (configuration not stated) | inactive: -18.5% |
| COc1ccc(CCNC(=O)c2ccc3c(c2)N(Cc2ccccc2C)C(=O)c2ccccc2S3)cc1OC | inactive: -29.6% |
| Cc1ccccc1NC(=O)CSc1nnc(-c2cccs2)o1 | inactive: -7.2% |
| Cc1cccc(N2CCN(C3(c4ccccc4)C(=O)c4ccccc4C3=O)CC2C)c1 (configuration not stated) | inactive: 0.312% |
| Cc1ccc(-c2nc3cc(Cl)ccc3o2)cc1NC(=O)COc1ccc(F)cc1 | inactive: -3.66% |
| COc1cccc(C2CC(=O)Nc3c2c(=O)nc2c(C)cccn32)c1OC (configuration not stated) | inactive: 0.842% |
| Cc1ccc(C(c2sc3nc(-c4ccco4)nn3c2O)N2CCN(Cc3ccccc3)CC2)cc1 (configuration not stated) | inactive: -9.99% |

| SMILES | activation |
| --- | --- |
| COc1ccccc1CNC(=O)c1cnn2c(C)c(Cc3ccc(F)cc3)c(C)nc12 | inactive: -19% |
| CCOC(=O)c1ccc(NC(=O)CN2C(=O)COc3ccc(Cl)cc32)cc1 | inactive: 6.32% |
| CC1=C(C(=O)OC2CCCC2)C(c2ccccc2Cl)CC(=O)N1 (configuration not stated) | inactive: -21.3% |
| Cn1nccc1C(=O)NCc1ccc2c(c1)CCN2C(=O)c1ccccc1 | inactive: -34% |
| CC(C)(C)OC(=O)N1CCC(c2c(C(=O)NC3CCCCC3)cnn2-c2cccc(Cl)c2)CC1 | inactive: -23.6% |
| Cc1c(C(=O)N2CCC(C)CC2)c(S(=O)(=O)N2CCN(c3ccc(Cl)cc3)CC2)c(C)n1C | inactive: -30% |
| CCOc1ccccc1NC(=O)Cn1nnc(C(=O)Nc2ccc(C)c(C)c2)c1N | inactive: 14.6% |
| CC1CCCN(CCCNC(=O)CN2C(=O)CSc3ccc(S(=O)(=O)N4CCOCC4)cc32)C1 (configuration not stated) | inactive: -1.11% |
| COc1ccc(-c2nc3sc(CCNC(=O)C(=O)Nc4c(C)cccc4C)c(C)n3n2)cc1 | inactive: -4.23% |
| O=C(Cn1c(=O)oc2cc(S(=O)(=O)NC3CCCC3)ccc21)Nc1ccc(F)c(F)c1 | active: 91.3% |
| Cc1ccc(Cl)cc1N1CCN(S(=O)(=O)c2cc3[nH]c(=O)c(=O)[nH]c3cc2C)CC1 | active: 97% |
| COc1ccc(CNC(=O)Cc2csc3nc(-c4ccc(C)cc4)cn23)cc1 | inactive: -15.6% |
| Cc1ccc(Cl)cc1N1CCN(C(=O)C2CCN(Cc3nc(-c4cccc(Cl)c4)oc3C)CC2)CC1 | inactive: 14.7% |
| Cc1ccccc1C(=O)Nc1nnc(S(=O)(=O)N2CCCCCC2)s1 | inactive: -13.9% |
| COC(=O)CC1Oc2ccccc2-n2cc(-c3ccc(Cl)cc3)nc21 (configuration not stated) | inactive: -2.31% |
| Cc1cc(C)cc(N(CC(=O)NCc2ccccc2Cl)S(=O)(=O)c2c(C)noc2C)c1 | inactive: -0.497% |
| CCOC(=O)c1ccc(Nc2cc(-c3ccccc3)nc(C)n2)cc1 | inactive: 2.6% |
| COc1ccc(-n2nc(C(=O)NCCc3cccc(C)c3)c3c4ccccc4n(C)c3c2=O)cc1Cl | inactive: 1.19% |
| Cc1cccc(-c2nc(SCC(=O)Nc3ccc4c(c3)OCCO4)c(-c3ccccc3)[nH]2)c1 | inactive: -22.6% |
| CCc1nn2c(=O)cc(COC(=O)C(c3ccccc3)c3ccccc3)nc2s1 | inactive: 9.21% |
| CCOC(=O)Cn1c(=O)n(-c2ccccc2OC)c2nc(-c3ccccc3C)nc(C(N)=O)c21 | inactive: -0.0071% |

| SMILES | activation |
| --- | --- |
| O=C(COc1ccccc1)Nc1ccccc1C(=O)OCc1cc(=O)n2nc(C3CC3)sc2n1 | inactive: -2.54% |
| CCOCCc1nn2c(=O)cc(COC(=O)C(CC)c3ccccc3)nc2s1 (configuration not stated) | inactive: -10% |
| COc1ccc(NC(=O)CCn2cccn2)cc1OC | inactive: 2.24% |
| Cc1nnc(N2CCN(c3ccccc3F)CC2)c2c1nnn2Cc1ccccc1 | inactive: -1.63% |
| Cc1cccc(C(=O)Nc2ccccc2SCc2cc(=O)c3cccc(C)c3[nH]2)c1 | inactive: 17% |
| CCOc1ccc(NC(=O)CC2C(=O)N(c3cccc(C)c3)C(=O)N2Cc2cccnc2)cc1 (configuration not stated) | inactive: -4.27% |
| CCOc1ccc(NC(=O)Cn2c(=O)n(CCC(=O)NCCc3ccccc3)c(=O)c3ccccc32)cc1 | inactive: 2.81% |
| Cc1ccc(Cn2c(=O)n(Cc3ccccc3Cl)c(=O)c3ccccc32)cc1 | inactive: -11.3% |
| CCCCc1nn2c(=O)cc(COC(=O)c3ccc(NC(=O)C4CCCCC4)cc3)nc2s1 | inactive: -11.5% |
| Cc1ccc2occ(-c3cc(-c4ccc(Cl)cc4)nc4c3COc3ccccc3-4)c(=O)c2c1 | inactive: -4.92% |
| Cc1ccc(N(C)C(=O)C2CCCN(c3ncnc4c3nc3n4CCCCC3)C2)cc1C (configuration not stated) | inactive: -5.97% |
| CCCn1cc(S(=O)(=O)c2ccc(CC)cc2)c(=O)c2ccccc21 | inactive: 36.9% |
| O=C(O)CCc1ccc(-c2ccccc2)n1CC(=O)Nc1ccccc1C(F)(F)F | inactive: -18.3% |
| COc1ccccc1CNC(=O)CCCCn1c(=O)c2ccccc2n(CC(=O)Nc2cc(Cl)ccc2C)c1=O | inactive: 7.63% |
| CCCCCC(O)c1cccc(OCc2ccc3ccccc3n2)c1 (configuration not stated) | inactive: -1% |
| O=c1c2[nH]c3ccccc3c2nc(SCc2cccc(F)c2)n1-c1ccccc1 | inactive: -21.2% |
| COc1ccc2c(c1)c1c(c(=O)n(-c3ccccc3C)c(=O)n1CC(=O)Nc1c(C)cccc1C)n2C | inactive: 20.1% |
| Cc1ccccc1Nc1nn2c(=O)c3ccc(C(=O)N4CCCC(C)C4)cc3nc2s1 (configuration not stated) | inactive: 0.842% |
| COc1cccc(OC)c1C(=O)Nc1ccc2c(c1)N(C(C)=O)CCC2 | inactive: -21.9% |
| O=C(CCc1ccccc1)NC1CC(=O)N(c2ccccc2)C1 (configuration not stated) | inactive: 1.77% |
| Cc1ccc(NC(=O)CCC(=O)N2Cc3ccccc3Oc3ncccc32)cc1 | inactive: 3.39% |

| SMILES | activation |
| --- | --- |
| COc1ccc(NC(=O)Cn2c(SCc3ccc(C)cc3)nc3cccnc32)c(OC)c1 | inactive: 14.2% |
| COc1ccc(-c2cnc(C)o2)cc1S(=O)(=O)Nc1ccc(C)c(N(C)C)c1 | inactive: 5.24% |
| CC(C)(C)c1ccc(C(=O)CCCN2CCC(OC(c3ccccc3)c3ccccc3)CC2)cc1 | inactive: 32% and inactive: -16.2% |
| O=C1CC(c2ccc(Cl)cc2)Sc2nc(-c3ccc(F)cc3)nn21 (configuration not stated) | active: 119% |
| CCOc1ccc(CNS(=O)(=O)c2cc(-c3cc(C)no3)ccc2C)cc1OC | inactive: -11.5% |
| CCc1ccc(-n2c(=O)c3c4c(sc3n(CC(=O)NC(C)CC)c2=O)CCCC4)cc1 (configuration not stated) | inactive: -6.51% |
| Cn1c(=O)[nH]c2cc(-c3noc(-c4ccc(F)cc4)n3)ccc21 | inactive: -5.28% |
| CCn1c(=O)cc(SCC(=O)NCCc2ccc(OC)cc2OC)c2ccccc21 | inactive: 41.9% |
| COCCCNC(=O)CSc1nc(-c2ccccc2)[nH]c1-c1ccc(C)cc1 | inactive: -18.9% |
| CCCn1c(=O)c2sccc2n2c(CCCC(=O)Nc3cccc(CC)c3)nnc12 | inactive: -3.34% |
| CCc1cnc2c(c1SCC(=O)Nc1ccc(C)cc1C)c(=O)n(C)c(=O)n2C | inactive: 1.09% |
| CN1C(=O)Cc2cc(S(=O)(=O)NCCc3ccccc3)ccc21 | inactive: -6.97% |
| CCc1ccc(OCC(=O)N(Cc2ccc(OC)cc2)C2CCS(=O)(=O)C2)cc1 (configuration not stated) | inactive: -7.78% |
| O=C(CCn1c(=O)c2cccn2c2cccnc21)N1CCN(c2cccc(Cl)c2)CC1 | inactive: 6.73% |
| Cc1cccc(-c2nc(SCC(=O)Nc3ccc4c(c3)OCO4)c(-c3ccccc3)[nH]2)c1 | inactive: -24.2% |
| CCN1CCN(C(=O)c2ccc3c(c2)N(Cc2cccc(F)c2)C(=O)c2ccccc2S3)CC1 | inactive: -9.5% |
| COCCCNC(=O)Cn1cnc2sc(C)c(S(=O)(=O)N3CCN(c4ccccc4OC)CC3)c2c1=O | inactive: 1.79% |
| CCOC(=O)c1cc(-c2ccc(C)cc2)n(CCC(=O)Nc2ccc(OC)c(OC)c2)c1C | inactive: 4.2% |
| COc1ccc(CCNC(=O)c2ccc3c(c2)N(Cc2ccc(Cl)cc2)CCS3)c(OC)c1 | inactive: 6.87% |
